Data reported in PubChem BioAssay AID504466 (National Center for Advancing Translational Sciences (NCATS), 2011).
The campaign covered roughly 330,000 compounds. About 4,200 (1.3%) were called active. The shares of active, inactive and inconclusive entries below differ from those in the screen. Calls come from the whole dose curve; as a rule, active = well fitted activation curve with a large enough effect; inconclusive = small, poorly fitted or top-dose-only effect; inactive = no such curve, though single readings can be large or run the other way. Where the call is inconclusive, the potency comes from a doubtful curve fit.

Assay: qHTS screen for small molecules that induce genotoxicity in human embryonic kidney (HEK293T) cells expressing luciferase-tagged ELG1; note: nearly all actives have a fitted effect of over 60% in size; for activity change, positive = activation: % of control where 0% means no effect
Settings: HEK293T ELG1-luciferase reporter, luminescence, 16 h; series mostly up to 46 µM; activity change, positive = activation: at the top concentration
Procedure, shortened: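 After overnight (16 hr) compound treatment at 37 °C, ELG1-luciferase HEK293T cells were lysed with ONE-Glo; luminescence quantified 30 min later at room temperature.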
Potency is the fitted concentration of half-maximal effect; tags give direction and shape of the fitted curve.

**Q.** With `CN(c1ccc(F)cc1)S(=O)(=O)c1ccc(Cl)c(C(=O)NCc2ccco2)c1` as the compound, how does the “activity change, positive = activation” value read?
**A.** inactive: -2.37%

**Q.** Which Potency does the source give for `Cc1oc(-c2cccc(C(F)(F)F)c2)nc1CN1CCOCC1` here?
**A.** inconclusive: 29.1 µM [activator, single point]

**Q.** For `CCN=c1scc(-c2ccccc2)n1/N=C/c1ccccn1`, which Potency is on record?
**A.** inconclusive: 0.411 µM [activator, full curve]

**Q.** With `COc1ccc2c(c1)OC/C(=C/c1cccs1)C2=O` as the compound, how does the Potency read?
**A.** active: 11.6 µM

**Q.** Which Potency does the source give for `CCCN1CCc2c(sc(NC(=O)c3ccc(S(=O)(=O)N4CCN(C(=O)OCC)CC4)cc3)c2C(N)=O)C1` here?
**A.** inconclusive: 25.9 µM [activator, single point]

**Q.** Which Potency does the source give for `CC1CCN(c2ccc(NC(=O)c3ccc(Br)o3)cc2)CC1` here?
**A.** active: 1.46 µM

**Q.** For `CCOc1ccc(C(C)NC(=O)c2cc(=O)[nH]c3ccccc23)cc1OCC` (configuration not stated), which “activity change, positive = activation” value is on record?
**A.** inactive: 0.826%

**Q.** Which Potency does the source give for `COC(=O)c1sccc1NC(=O)Nc1cccc(C)c1` here?
**A.** inconclusive: 20.6 µM [activator, partial curve, poor fit]

**Q.** For `Cc1ccc(NC(=O)Nc2ccc3c(c2)CCC3)cc1`, which Potency is on record?
**A.** inconclusive: 5.17 µM [activator, full curve]

**Q.** Which “activity change, positive = activation” value does the source give for `CCOC(=O)C1=C(N)Oc2c(c(=O)[nH]c3ccccc23)C1c1ccccc1` (configuration not stated) here?
**A.** inactive: 3.47%

**Q.** With `Cc1ccc(NC(=O)CN(C)C(=O)CSc2nnc(N)s2)cc1` as the compound, how does the “activity change, positive = activation” value read?
**A.** inactive: 1.3%

**Q.** With `Clc1ccc(-c2cnnc(-c3ccccn3)n2)cc1` as the compound, how does the Potency read?
**A.** active: 20.6 µM

**Q.** Which Potency does the source give for `CN(C)CCN(C(=O)c1ccc(S(=O)(=O)N(C)c2ccccc2)cc1)c1nc2ccc(Cl)cc2s1` here?
**A.** inconclusive: 3.66 µM [activator, partial curve, poor fit]

**Q.** With `COc1cc(Nc2cc(C)nc3ncnn23)cc(OC)c1OC` as the compound, how does the Potency read?
**A.** inconclusive: 29.1 µM [activator, single point]

**Q.** Which “activity change, positive = activation” value does the source give for `O=c1c2c3c(sc2ncn1/N=C/c1ccncc1)CCCC3` here?
**A.** inactive: -1.99%

**Q.** For `CCOc1ccc2cc(C(=O)c3ccccc3)c(=O)oc2c1`, which Potency is on record?
**A.** inconclusive: 18.4 µM [activator, partial curve, poor fit]

**Q.** For `O=C(COC(=O)c1nc(Cl)ccc1Cl)NNC(=O)c1cccs1`, which “activity change, positive = activation” value is on record?
**A.** inactive: 1.22%

**Q.** With `CN(C)c1ccc(/C=C(\C#N)c2ccccn2)cc1` as the compound, how does the Potency read?
**A.** inconclusive: 0.164 µM [activator, partial curve]

**Q.** For `O=C(NC1CCCCC1)C(c1ccc(Cl)cc1)N(C(=O)c1ccccn1)c1cccnc1` (configuration not stated), which “activity change, positive = activation” value is on record?
**A.** inactive: 5.95%

**Q.** With `Cc1cc(O)c(NC(=O)c2ccco2)cc1C` as the compound, how does the Potency read?
**A.** inconclusive: 11.6 µM [activator, partial curve]

**Q.** For `Cc1ccc(S(=O)(=O)N2CCOCC2)cc1C(=O)Nc1ccc(-c2cn3ccsc3n2)cc1`, which “activity change, positive = activation” value is on record?
**A.** inactive: -8.87%

**Q.** For `Cc1cccc(/C(N)=N/OC(=O)c2ccoc2C)c1`, which Potency is on record?
**A.** inconclusive: 2.82 µM [activator, full curve]

**Q.** With `Cc1csc2nc(CSc3nc4ccccc4o3)cn12` as the compound, how does the Potency read?
**A.** inconclusive: 7.31 µM [activator, single point]

**Q.** For `O=C(NCCc1ccccc1)c1ccc2c(c1)OCCO2`, which Potency is on record?
**A.** inconclusive: 0.058 µM [activator, full curve, poor fit]

**Q.** With `Oc1cccc2ccc(/C=C/c3ccc(Br)s3)nc12` as the compound, how does the Potency read?
**A.** active: 20.6 µM

**Q.** For `COc1ccc(S(=O)(=O)N2CCCc3ccccc32)cc1OC`, which Potency is on record?
**A.** inconclusive: 23.1 µM [activator, partial curve, poor fit]

**Q.** For `COc1cc(/C=C2\SC(=S)N(CCC(=O)Nc3ccccc3O)C2=O)cc(OC)c1OC`, which “activity change, positive = activation” value is on record?
**A.** inactive: 3%

**Q.** For `O=C(CSc1nc(-c2cccs2)nc2ccccc12)NC1CCS(=O)(=O)C1` (configuration not stated), which Potency is on record?
**A.** inconclusive: 10.3 µM [activator, partial curve, poor fit]

**Q.** With `C/C(=N\NC(=O)CNC(=O)C1COc2ccccc2O1)c1ccco1` (configuration not stated) as the compound, how does the “activity change, positive = activation” value read?
**A.** inactive: -2.46%

**Q.** Which Potency does the source give for `CCC(=O)NCCc1nc2cc(NC(=O)c3cccc([N+](=O)[O-])c3)ccc2n1C` here?
**A.** inconclusive: 23.1 µM [activator, partial curve, poor fit]

**Q.** For `Cc1cccc(C(=O)OCC(=O)c2c(C)[nH]c3ccccc23)c1O`, which Potency is on record?
**A.** inconclusive: 16.4 µM [activator, partial curve, poor fit]

**Q.** For `Cc1cccnc1NC(=S)NC(=O)c1oc2ccccc2c1C`, which Potency is on record?
**A.** inconclusive: 9.2 µM [activator, partial curve, poor fit]

**Q.** With `COc1cccc(N(C(=O)CS(=O)CC(=O)Nc2ccc(F)cc2)C(C(=O)NC2CCCCC2)c2cccs2)c1` (configuration not stated) as the compound, how does the Potency read?
**A.** inconclusive: 32.6 µM [activator, partial curve, poor fit]

**Q.** Which Potency does the source give for `O=C(Nc1ccc2c(c1)ncn2C1CCCCC1)c1ccco1` here?
**A.** inconclusive: 20.6 µM [activator, single point]

**Q.** With `Cc1nn(C)cc1CNC(=O)Nc1ccc(Cl)cc1` as the compound, how does the Potency read?
**A.** inconclusive: 18.4 µM [activator, single point]

**Q.** For `c1c2c(cc3sc(N4CCCCC4)nc13)OCO2`, which Potency is on record?
**A.** inconclusive: 1.03 µM [activator, partial curve]

**Q.** With `COCCCNC(=O)COc1ccc(Br)cc1Cl` as the compound, how does the Potency read?
**A.** inconclusive: 25.9 µM [activator, partial curve, poor fit]

**Q.** Which Potency does the source give for `Cc1cc(C)c(S(=O)(=O)N2CCOC2CNC(=O)C(=O)NCCCN2CCOCC2)c(C)c1` (configuration not stated) here?
**A.** inconclusive: 29.1 µM [activator, single point]

**Q.** For `COc1ccc(-c2nnc(SC)o2)c(OC)c1`, which Potency is on record?
**A.** inconclusive: 20.6 µM [activator, partial curve, poor fit]

**Q.** Which Potency does the source give for `CCOC(=O)c1cc(-c2ccccc2)nn1Cc1cc(CC)no1` here?
**A.** inconclusive: 23.1 µM [activator, partial curve, poor fit]

**Q.** With `COc1ccc(OCc2cc(C(=O)NCc3nc(C)cs3)no2)c(Cl)c1` as the compound, how does the Potency read?
**A.** inconclusive: 6.51 µM [activator, partial curve]

**Q.** With `COc1ccc(C(=O)/C=C/Nc2ccc(C)cn2)cc1OC` as the compound, how does the Potency read?
**A.** inconclusive: 4.61 µM [activator, partial curve]

**Q.** Which “activity change, positive = activation” value does the source give for `COc1ccccc1C1CCN(C(=O)c2ccco2)CC1` here?
**A.** inactive: -3.22%

**Q.** Which Potency does the source give for `O=C(N[C@@H](Cc1ccccc1)C(=O)NC1CCCCCC1)c1ccco1` here?
**A.** inconclusive: 23.1 µM [activator, partial curve]

**Q.** Which Potency does the source give for `Fc1cc(F)cc(NC(=S)N2CCC(c3ccccc3)C2)c1` (configuration not stated) here?
**A.** inconclusive: 18.3 µM [activator, partial curve]

**Q.** For `O=C(NCCCN1CCCC1=O)c1cc2c(s1)CCCCC2`, which Potency is on record?
**A.** inconclusive: 23.1 µM [activator, partial curve, poor fit]

**Q.** For `COc1ccc(-c2ccc(NC(=O)c3ccc(Br)o3)cc2)nn1`, which Potency is on record?
**A.** active: 2.06 µM

**Q.** Which “activity change, positive = activation” value does the source give for `COc1cc(OC)cc(-c2sc3ccc(OC)cc3c2-c2ccc(O)cc2)c1` here?
**A.** inactive: 2.46%

**Q.** For `O=C(Nc1ccc(Cl)cc1)c1csc(Cc2ccccc2)n1`, which Potency is on record?
**A.** inconclusive: 20.6 µM [activator, single point]

**Q.** Which Potency does the source give for `CCCCN1C(C)=CC(=C2C(=O)c3ccccc3C2=O)C=C1C` here?
**A.** active: 0.82 µM

**Q.** Which Potency does the source give for `COc1ccc(-c2nnc3sc(-c4ccco4)nn23)cc1OC` here?
**A.** inconclusive: 20.6 µM [activator, partial curve]

**Q.** With `CCCN1C(=O)c2ccc(C(=O)Nc3ccc4c(c3)OCO4)cc2C1=O` as the compound, how does the Potency read?
**A.** inconclusive: 20.6 µM [activator, partial curve]

**Q.** Which Potency does the source give for `O=C(N/N=C/c1ccc[nH]1)c1ccc2c(c1)OCO2` here?
**A.** inconclusive: 14.6 µM [activator, partial curve, poor fit]

**Q.** Which Potency does the source give for `Cc1cc(Br)ccc1OCC(=O)NC1CCCC1` here?
**A.** inconclusive: 29.1 µM [activator, single point]

**Q.** Which Potency does the source give for `COc1cccc(Oc2nnnn2-c2ccccc2)c1` here?
**A.** inconclusive: 25.9 µM [activator, partial curve, poor fit]

**Q.** For `CCS(=O)(=O)Nc1cc(-c2nc3cccnc3s2)ccc1C`, which Potency is on record?
**A.** active: 2.91 µM

**Q.** With `CC(=O)C(C)Oc1ccc2c3c(c(=O)oc2c1)CCCCC3` (configuration not stated) as the compound, how does the Potency read?
**A.** active: 9.2 µM

**Q.** With `COc1ccc(-c2csc(N(CCCN(C)C)C(=O)c3ccccc3C)n2)cc1` as the compound, how does the “activity change, positive = activation” value read?
**A.** inactive: -10.5%

**Q.** With `CC(=O)C[C@@H](O)CC(=O)[C@@H]1OC(=O)CCCCCCCc2ccccc21` as the compound, how does the “activity change, positive = activation” value read?
**A.** inactive: 0.536%

**Q.** For `Cc1cc(-c2nnc(SCC(=O)Nc3c(C)cccc3C)n2N)n[nH]1`, which “activity change, positive = activation” value is on record?
**A.** inactive: -0.122%

**Q.** With `Oc1ccc(Br)cc1/C=N/Nc1ccccn1` as the compound, how does the Potency read?
**A.** inconclusive: 13 µM [activator, partial curve]

**Q.** With `CCOC(=O)c1c(C)nc(-c2ccccc2)nc1NC(C)=O` as the compound, how does the Potency read?
**A.** inconclusive: 29.1 µM [activator, single point]

**Q.** For `CCCn1nc(C(=O)Nc2ccc(N3CCOCC3)cc2)c2ccccc2c1=O`, which Potency is on record?
**A.** inconclusive: 32.6 µM [activator, partial curve, poor fit]

**Q.** Which Potency does the source give for `CC(C)OC(=O)Nc1ccc2c(c1)N(C(=O)N1CCN(C)CC1)c1ccccc1CC2` here?
**A.** inconclusive: 23.1 µM [activator, single point]

**Q.** For `COc1ccc(NC(=O)COC(=O)CCNC(=O)c2ccco2)cc1Cl`, which “activity change, positive = activation” value is on record?
**A.** inactive: 0.524%

**Q.** For `CCOc1ccc(-c2nnc(-c3ccco3)o2)cc1OCC`, which Potency is on record?
**A.** inconclusive: 16.4 µM [activator, partial curve, poor fit]

**Q.** Which Potency does the source give for `CCOC(=O)c1cnc2c(-c3ccc(Cl)cc3)cnn2c1C` here?
**A.** active: 2.59 µM

**Q.** Which Potency does the source give for `Clc1ccc(-n2ncc3c(N4CCCCCC4)ncnc32)cc1` here?
**A.** active: 0.146 µM

**Q.** Which “activity change, positive = activation” value does the source give for `CCc1ccc(-c2nnn(CCC#N)n2)cc1` here?
**A.** inactive: 12.4%

**Q.** With `CCCN(CCC)CCNC(=O)CCC(=O)Nc1ccc2nc(N3CCOCC3)cc(C)c2c1` as the compound, how does the Potency read?
**A.** inconclusive: 16.4 µM [activator, partial curve, poor fit]

**Q.** For `O=C1CC(c2ccco2)CC2=C1C1c3ccccc3C(=O)N1c1ccccc1N2` (configuration not stated), which Potency is on record?
**A.** inconclusive: 23.1 µM [activator, single point]

**Q.** With `COc1ccc(C(=O)CNc2cccc(F)c2)cc1` as the compound, how does the Potency read?
**A.** inconclusive: 11.6 µM [activator, partial curve]
